Results published in PMC4336329 (PLoS ONE, 2015).
Out of some 310,000 compounds screened, about 2,200 (0.71%) showed an effect of 50% or more. Effects have a minus sign here. Some of the results follow.

Each compound was assayed against human ether-à-go-go-related gene (hERG) potassium channel (human, UniProt Q12809) (assay: primary screen, population patch clamp on CHO cells stably expressing hERG).
human ether-à-go-go-related gene (hERG) potassium channel, sequence (Q12809 whole entry, looked up): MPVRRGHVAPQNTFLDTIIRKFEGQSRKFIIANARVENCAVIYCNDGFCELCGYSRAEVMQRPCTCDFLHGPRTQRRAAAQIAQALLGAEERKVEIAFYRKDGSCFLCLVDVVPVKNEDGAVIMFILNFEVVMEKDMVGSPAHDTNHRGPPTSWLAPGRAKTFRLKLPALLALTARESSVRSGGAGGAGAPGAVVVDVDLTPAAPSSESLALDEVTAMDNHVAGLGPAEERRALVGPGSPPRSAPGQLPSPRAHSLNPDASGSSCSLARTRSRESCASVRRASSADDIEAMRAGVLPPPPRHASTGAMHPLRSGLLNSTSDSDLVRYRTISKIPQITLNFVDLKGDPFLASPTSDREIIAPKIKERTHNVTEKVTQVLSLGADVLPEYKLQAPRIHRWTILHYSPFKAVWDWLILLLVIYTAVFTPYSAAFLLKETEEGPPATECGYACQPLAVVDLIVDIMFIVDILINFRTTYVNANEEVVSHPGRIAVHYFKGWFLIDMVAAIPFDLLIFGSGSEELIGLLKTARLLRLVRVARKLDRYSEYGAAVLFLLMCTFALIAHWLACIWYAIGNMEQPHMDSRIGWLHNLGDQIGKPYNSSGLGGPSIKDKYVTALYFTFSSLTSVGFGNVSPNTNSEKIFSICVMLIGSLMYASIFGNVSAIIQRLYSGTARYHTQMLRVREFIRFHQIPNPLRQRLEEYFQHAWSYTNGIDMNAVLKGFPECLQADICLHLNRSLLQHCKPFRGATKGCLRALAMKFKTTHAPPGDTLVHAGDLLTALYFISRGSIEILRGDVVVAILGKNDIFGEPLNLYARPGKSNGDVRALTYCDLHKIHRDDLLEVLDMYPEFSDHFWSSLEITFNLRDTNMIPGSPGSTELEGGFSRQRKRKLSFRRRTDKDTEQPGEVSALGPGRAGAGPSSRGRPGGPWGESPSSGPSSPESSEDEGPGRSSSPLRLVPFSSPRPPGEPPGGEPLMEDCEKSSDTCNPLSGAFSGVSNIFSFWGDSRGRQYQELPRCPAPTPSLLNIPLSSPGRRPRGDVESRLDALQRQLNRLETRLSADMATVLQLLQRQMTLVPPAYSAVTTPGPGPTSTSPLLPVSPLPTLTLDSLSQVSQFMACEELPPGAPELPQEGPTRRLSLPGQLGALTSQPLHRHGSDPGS

**Q.** How did the “hERG current change (%, negative = inhibition) at 1uM” value turn out when `CC1CC(C)CN(Cc2nc(N)nc(Nc3ccccc3)n2)C1` (stereo not drawn) was run?
**A.** -52.3%

**Q.** Which “hERG current change (%, negative = inhibition) at 1uM” value does the source give for `Cc1cc2cc(CN(Cc3ccc4c(c3)OCO4)C(=O)c3ccco3)c(=O)[nH]c2cc1C` here?
**A.** 11.2%

**Q.** Which “hERG current change (%, negative = inhibition) at 1uM” value does the source give for `Cc1cc2c(cc1S(=O)(=O)N1CCc3ccccc31)NC(=O)CO2` here?
**A.** 7.65%

**Q.** With `CCCCCC1CC(COc2ccccc2)OC1=O` (stereo not drawn) as the compound, how does the “hERG current change (%, negative = inhibition) at 1uM” value read?
**A.** -3.31%

**Q.** For `COc1ccc(CCNC(=O)CCN2C(=O)c3ccccc3C2=O)cc1OC`, which “hERG current change (%, negative = inhibition) at 1uM” value is on record?
**A.** 11.8%

**Q.** With `O=C(CN1CCCC1)Nc1ccc(NC(=O)Nc2ccccc2)cc1` as the compound, how does the “hERG current change (%, negative = inhibition) at 1uM” value read?
**A.** 9.97%

**Q.** With `COc1ccc(CCN2C(=O)NC(NC(C)=O)(C(F)(F)F)C2=O)cc1OC` (stereo not drawn) as the compound, how does the “hERG current change (%, negative = inhibition) at 1uM” value read?
**A.** 7.21%

**Q.** With `O=[N+]([O-])c1ccc(NCCN2CCOCC2)c([N+](=O)[O-])c1` as the compound, how does the “hERG current change (%, negative = inhibition) at 1uM” value read?
**A.** -8.22%

**Q.** How did the “hERG current change (%, negative = inhibition) at 1uM” value turn out when `CCOC(=O)/C(C#N)=C/C1=C(N2CCOCC2)CC(C)(C)OC1` was run?
**A.** 4.43%

**Q.** How did the “hERG current change (%, negative = inhibition) at 1uM” value turn out when `Cc1ccc(C(=O)NCCc2c[nH]c3ccccc23)c(C)c1` was run?
**A.** 5.16%

**Q.** Which “hERG current change (%, negative = inhibition) at 1uM” value does the source give for `CC1=C(C(=O)OCC2CCCO2)C(c2ccccc2)NC(=O)N1` (stereo not drawn) here?
**A.** 12.8%

**Q.** Which “hERG current change (%, negative = inhibition) at 1uM” value does the source give for `CC(C)c1ccc(/C=N/NC(=O)c2nnn(-c3nonc3N)c2CN2CCOCC2)cc1` here?
**A.** 2.51%

**Q.** Which “hERG current change (%, negative = inhibition) at 1uM” value does the source give for `COc1ccccc1C(=O)Nc1ccc2c(c1)nc(CCNC(=O)c1ccco1)n2C` here?
**A.** 8.84%

**Q.** `COc1cccc(OC)c1C(=O)Oc1ccc2c(c1)O/C(=C\c1ccncc1)C2=O` was tested. Which “hERG current change (%, negative = inhibition) at 1uM” value did it give?
**A.** 18.3%

**Q.** `Cc1cccc(C)c1NC(=S)Nc1ccc(F)cc1` was tested. Which “hERG current change (%, negative = inhibition) at 1uM” value did it give?
**A.** 7.6%

**Q.** For `Cc1cc(/C=C(\C#N)C(=O)O)c(C)n1C1CC1`, which “hERG current change (%, negative = inhibition) at 1uM” value is on record?
**A.** -1.4%

**Q.** `Fc1cccc(F)c1CSc1nc2ccccc2[nH]1` was tested. Which “hERG current change (%, negative = inhibition) at 1uM” value did it give?
**A.** 0.26%

**Q.** With `CC1CCCN(C(=O)C2CCN(S(=O)(=O)c3ccc4c(c3)CC(C)N4C(=O)C3CC3)CC2)C1` (stereo not drawn) as the compound, how does the “hERG current change (%, negative = inhibition) at 1uM” value read?
**A.** 10.8%

**Q.** How did the “hERG current change (%, negative = inhibition) at 1uM” value turn out when `COCCNC(=O)C(=O)NNC(=O)COc1ccc(OC)cc1` was run?
**A.** 8.3%

**Q.** Which “hERG current change (%, negative = inhibition) at 1uM” value does the source give for `CCCC(=O)N1CCN(c2ccc(NC(=O)c3ccccc3)cc2)CC1` here?
**A.** 10%

**Q.** For `Cc1cccc(-n2c(Cc3cc(=O)[nH]c(=O)[nH]3)nnc2SCC(=O)NCC2CCCO2)c1` (stereo not drawn), which “hERG current change (%, negative = inhibition) at 1uM” value is on record?
**A.** 13.7%

**Q.** Which “hERG current change (%, negative = inhibition) at 1uM” value does the source give for `O=S(=O)(c1ccc(Oc2ccc(Cl)cc2)c(S(=O)(=O)N2CCCCC2)c1)N1CCCCC1` here?
**A.** -4.29%

**Q.** For `CCOC(=O)c1c(NC(=O)C2CCCN(S(=O)(=O)c3ccc(C)cc3)C2)sc2c1CCCC2` (stereo not drawn), which “hERG current change (%, negative = inhibition) at 1uM” value is on record?
**A.** 14.5%

**Q.** Which “hERG current change (%, negative = inhibition) at 1uM” value does the source give for `CC1(c2nnc(-c3cccc(Cl)c3)o2)CC(c2ccc(F)cc2)=NO1` (stereo not drawn) here?
**A.** 17.6%

**Q.** How did the “hERG current change (%, negative = inhibition) at 1uM” value turn out when `COc1ccc(-c2c(C#N)c(N)nc3c2CCC3)cc1` was run?
**A.** 8.34%

**Q.** Which “hERG current change (%, negative = inhibition) at 1uM” value does the source give for `Cc1ccc(/C=N/NC(=O)c2cc(C3CC3)nc3ccccc23)o1` here?
**A.** 8.32%

**Q.** How did the “hERG current change (%, negative = inhibition) at 1uM” value turn out when `COc1ccccc1OCC(=O)NNC(=O)c1c(-c2ccccc2Cl)noc1C` was run?
**A.** 10.4%

**Q.** Which “hERG current change (%, negative = inhibition) at 1uM” value does the source give for `CN(CC(=O)Nc1c(F)cccc1F)Cc1cccs1` here?
**A.** 18.5%

**Q.** `CC(C)(C)C(=O)CCN1C(=O)C2(OCCO2)c2ccccc21` was tested. Which “hERG current change (%, negative = inhibition) at 1uM” value did it give?
**A.** 5.53%

**Q.** With `CC(Sc1nnc(-c2cccnc2)o1)C(=O)NC1CCCC1` (stereo not drawn) as the compound, how does the “hERG current change (%, negative = inhibition) at 1uM” value read?
**A.** -1.31%

**Q.** `COc1ccc(/C=C/C(=O)c2cc(F)ccc2OC(=O)c2ccccc2C)cc1OC` was tested. Which “hERG current change (%, negative = inhibition) at 1uM” value did it give?
**A.** 3%

**Q.** How did the “hERG current change (%, negative = inhibition) at 1uM” value turn out when `COc1ccc(-c2ccnc3ncnn23)cc1` was run?
**A.** -4.44%

**Q.** With `COc1cccc(CN(CC(=O)NCC2CCCO2)C(=O)CCC(=O)Nc2cc(C)on2)c1` (stereo not drawn) as the compound, how does the “hERG current change (%, negative = inhibition) at 1uM” value read?
**A.** 7.83%

**Q.** `COc1ccc(-c2nnc(SCC(=O)N3CCCCC3)o2)cc1` was tested. Which “hERG current change (%, negative = inhibition) at 1uM” value did it give?
**A.** 3.01%

**Q.** With `CCOC(=O)Cn1c(=O)oc2cc(S(=O)(=O)N3CCCC(C)C3)ccc21` (stereo not drawn) as the compound, how does the “hERG current change (%, negative = inhibition) at 1uM” value read?
**A.** 18.2%

**Q.** For `COCc1nnc(NS(=O)(=O)c2ccccc2)s1`, which “hERG current change (%, negative = inhibition) at 1uM” value is on record?
**A.** 8.1%

**Q.** Which “hERG current change (%, negative = inhibition) at 1uM” value does the source give for `CC(C)CCN(Cc1ccco1)S(=O)(=O)c1csc(C(N)=O)c1` here?
**A.** -2.33%

**Q.** How did the “hERG current change (%, negative = inhibition) at 1uM” value turn out when `C=CCNC(=O)CCNS(=O)(=O)c1ccc(Br)cc1` was run?
**A.** 10.3%

**Q.** With `Cc1cc2oc(C(=O)Nc3ccc(S(=O)(=O)Nc4onc(C)c4C)cc3)cc(=O)c2cc1Cl` as the compound, how does the “hERG current change (%, negative = inhibition) at 1uM” value read?
**A.** 1.59%

**Q.** How did the “hERG current change (%, negative = inhibition) at 1uM” value turn out when `CCC(=O)N1CCC2(CC1)Oc1ccc(Cl)cc1C(=O)C21CC(c2ccc(Cl)cc2)=NO1` (stereo not drawn) was run?
**A.** 5.67%

**Q.** `CC(NC(=O)CS(=O)(=O)c1ccccc1)c1ccccc1` (stereo not drawn) was tested. Which “hERG current change (%, negative = inhibition) at 1uM” value did it give?
**A.** 9.13%

**Q.** How did the “hERG current change (%, negative = inhibition) at 1uM” value turn out when `CSc1nc(-c2ccc(Cl)cc2)nn1C(=O)c1ccco1` was run?
**A.** 5%

**Q.** For `CCOC(=O)c1c(C)c(C(=O)NCc2ccccn2)c(C)n1C`, which “hERG current change (%, negative = inhibition) at 1uM” value is on record?
**A.** 4.03%

**Q.** How did the “hERG current change (%, negative = inhibition) at 1uM” value turn out when `Cc1ccc(S(=O)(=O)Nc2cccnc2)c(C)c1C` was run?
**A.** 13.6%

**Q.** How did the “hERG current change (%, negative = inhibition) at 1uM” value turn out when `O=c1c(Cl)c(N2CCOCC2)cnn1-c1ncc(C(F)(F)F)cc1Cl` was run?
**A.** 3.18%
